Measured values from the RNAGym collection of RNA variant scans (doi:10.7554/elife.90254).
The source gives no read counts; variants with many changes may rest on few reads.

B1: LINE1-mini (parent)
chain: GGCAGAGCUCAACACAGCGUGGCAAAGUGGCUGUGGCUAGACUGCC

Variants of: B1
Assay: self-cleavage, relative activity (ratio to wild type); higher = more cleavage; in vitro, sequencing; the parent is a self-cleaving ribozyme

Variant | self-cleavage
GGCAGACCUCAACACAGCCUGGGAACGUGUCUGUGGCUAGACUGCC | 0.02
GGCAGACCUCAACACAUCUUGGCAAGGUGGCUGUGGCUAGAGUGCC | 0.01
GGCAGACCUCAACACAGCUUGGCAAAGAGGCUGUGGCUAGACUGCC | 0.03
GGCAGACCUCAAUACAGCGUGGCAAAGUGUCUGUGGCUAGAUUGCC | 0.07
GGCAGACCUCAACACAGCGUGGCAAAGUGGCUAUGGCUCGAAUGCC | 0.07
GGCAGACCUCAACACAGCGUGGCAAAGCGGCUUUGGCUAGACUGCC | 0.06
GGCAGACCUCAACACAGCGUGAAAAAGUGGCUGUGUCUAGAGUGUC | 0.01
GGCAGACCACAACACAGCGUGGAAAAGUGGCUGAAGUUAGACUGCC | 0.05
GGCAGACGUCAACACAGCGUGGCUAAGUGGCUGUGGCUAGACUGCG | 0.13
GGCAGACCUGAACACAGCGUGGGAAAGGGGCUGUGGCUAGACUGCC | 0
GGCAGACCUCAACACAGCGUGGCAAAGUGGCUGAGGCUAGACAGCC | 0.03
GGCAGACCUCAACAAAGCGUGGCAAAGUGGCUGUGGCUAGUAUGCC | 0.12
GGCAGACCUGAACACAGCGUGGCAAAGUGGUUGUGGCUAGACUGCC | 0.12
GGCAGACCUCAACACAGCGUGCCAAAGUGGCUGUGGCGAGACUGCG | 0
GGCAGACCUCAAUACAGCUUGGCAAAGUGGCUGUGGCUAGGCUGCC | 0.01
GGCAGACAUCAACACAGCGUGGCAAAGUGGCCGUGUCUAGACUGCA | 0.57
GGCAGACCUCAACACAGCGGCGCAAAGUGGCUGUGGUUAGACUGCC | 0
GGCAGAUCUCUACACAGCUUGGCAAAGUGGCUUUGGCUAGACUGCU | 0.05
GGCAGACCUCAACACAGCGUGGCAAAGUGGCAGUUGCUAGACUGCC | 0.04

Variant | self-cleavage
GGCAGACGUCAACACAGCGCGGCAAAGUGGCUGUGGCUAGCCUGCC | 0.21
GGCAGACCUCAACAAAGUGAGGCAAAGUGGCAGUGGCUAGUCUGGC | 0.01
GGCAGACUUCAACACAGCGUGGCAAAGGGGCUGUGGCUAGACUGGC | 0.22
GGCAGACCUCAACACAGGGUGACAAAGUGGCUGUGGCUCGGCUGCC | 0.08
GGCAGACCUCAACACAGCGUGGCAAAGUGUCUAUGGUUAGACUGCC | 0.03
GGCAGACCUCAACACAGCUUGGCAAAGUGGCUGUGCCUAGACUGCC | 0.04
GGCAGAUCUCCACACAGCGUGGCAUAGUGGCUGUGGCUAGACUGCC | 0
GGCAGACCUCAACACAGUGUGGCAAAUUGGCUGUGGCUAGACUGGC | 0.04
GGCAGACCUAAACCCAGCGGGGCAAAGUGGCUGCGGCUCGCCUGCC | 0
GGCAGACCUCAACACAUCGUGGCAAGGUGGCUGUGGCUCGACUGCC | 0.05
GGCAGAUCUCCACACAGCGUGGCAAAGUAGCUGUGGCUAGACUGCU | 0.01
GGCAGACCUAAACACAGCGUGGCAAAGUGGCUGUGGCUAGAUUGCC | 0.03
GGCAGACCUAAACACAGCGUGGCAAAGUGGCUCUGGCUAGACUGCC | 0.02
GGCAGACCUCAACACAGCGUGGCAAAGGGGCUGUGGUUAGACUGCC | 0.03
GGCAGACCUCAACACAGCGUCGCAAAGUGGCUGUAGCUAGACAGCC | 0.02
GGCAGACCUCAACACACCGUGGCAAAUUGGCGGUGGCUAGAGUGCC | 0.01
GGCAGACCUCAAGACCGCGUGGGAAAGUGGCUGUGGUUAGACUGCU | 0.01
GGCAGACCUCAAGAGAGCGUGGCAAAGUUGCUGUGGCUAGACUGCC | 0.08
GGCAGACCUCAACACAGCGUAGCGAAGUGGCUGUGGCUAGACUGCC | 0.27

Variant | self-cleavage
GGCAGACCUCAACACAGCGGGGCACAUUGGCUGUGGCGAUACUGCC | 0.03
GGCAGACCUCAACACAGCGUGGCAAAGUGGCUGUGGCACAACUGCC | 0.11
GGCAGACCUGAACACAGCGUGGCAAAGUGGCUGUGGCUGGACUGCC | 0.01
GGCAGACCUCAACACAGCGUGGCAAAGUGGCUGUUGAUAGACUGCC | 0.18
GGCAGACCUCAAGACAGCGUGGCAAAGUUGCUGUGGCUAGACUGCC | 0.1
GGCAGAUCUCUACACAGCGUGGCAAAGUCGCUGUAACUAGACUGCU | 0.01
GGCAGACCUCAACACAGCGUCGCAAAGUGGCUGUGGCUAGAAUGCC | 0.01
GGCAGACCGCAACACACCGUGGCAAAGUGGGUGUGGCUAGACUGCC | 0.05
GGCAGACCUCAAGAGAGCGUGGUAAAGUGGCUGUGCCUAGACUGCC | 0.04
GGCAGACCUCAACACAGUGUGGCAAAGUGGCUGCUGCUAGACUGCC | 0.04
GGCAGACCUAAACACAGCGUGGCAAAGUGGCUGUGGCUAGACAGCC | 0.03
GGCAGAUCUCUACACAGCGUGGCAAAGUAGCUGUGGCUAGACUGCC | 0.02
GGCAGACCUCAAUAAAGCGUGUCAGGGUGGCUGUGGCUACACUGCC | 0.02
GGCAGACCUCAACACAGCGUGGAAAAGUGCUGGUGGCUAGACUGCC | 0.03
GGCAGACCUCAACACAGCGUGGCAAAGGGGCUGUGGCUAGACUACC | 0.03
GGCAGACGUCAACACAGCGUGGCAAAGUGGCUGUGGCUAGAAUGCC | 0.02
GGCAGACCUCAACAUAGCGAGGCAAAGUGGCUGUGGCUAGACUGCC | 0.03
GGCAGACCGUAACGCAGCGUGGCAAAGUGGCUGUGGCUAGACUGCC | 0.06
